# Source: publication PMC5700166
# Only a part is listed here, and it is no random draw. The list includes weakly bound sequences.
# Target: T1, GST-Ap-NF-kB RHD (UniProt A0A913YAJ5)
# T1 sequence: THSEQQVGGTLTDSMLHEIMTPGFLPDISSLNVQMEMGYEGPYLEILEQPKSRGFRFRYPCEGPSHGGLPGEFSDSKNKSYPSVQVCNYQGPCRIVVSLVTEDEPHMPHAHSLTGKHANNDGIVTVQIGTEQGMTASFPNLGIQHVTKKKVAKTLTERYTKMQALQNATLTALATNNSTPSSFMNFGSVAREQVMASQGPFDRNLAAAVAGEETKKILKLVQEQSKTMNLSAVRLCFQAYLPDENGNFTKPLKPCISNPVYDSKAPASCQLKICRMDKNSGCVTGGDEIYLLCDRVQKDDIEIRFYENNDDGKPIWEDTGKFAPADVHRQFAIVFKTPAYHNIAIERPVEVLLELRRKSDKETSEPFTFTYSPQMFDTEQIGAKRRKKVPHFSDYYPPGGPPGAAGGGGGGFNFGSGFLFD
# Test: protein-binding microarray (PBM)
# Conditions: PBM: ~300 nM protein, 6 mM HEPES pH 7.8, 80 mM KCl, 0.5 mM EDTA, 0.5 mM EGTA, 6% glycerol, 35 ng/ul poly-dIdC, 1% milk, 1 h, room temperature; high values mean tight binding; double strand, one strand shown
row,Sequence,binding signal [z-score]
1,CCGATTAACATCAGGAAAAACACTGATGTTAATCGGGTCTTGATTCGCTTGACGCTGCTG,-0.348
2,CCGATTAACATCAAGTACATTCCTGATGTTAATCGGGTCTTGATTCGCTTGACGCTGCTG,-0.368
3,CCGATTAACATCAAGAAATCCCCTGATGTTAATCGGGTCTTGATTCGCTTGACGCTGCTG,9.62
4,CCGATTAACATCAGGAAAATACATGATGTTAATCGGGTCTTGATTCGCTTGACGCTGCTG,0.531
5,CCGATTAACATCAAAATTCCCCCTGATGTTAATCGGGTCTTGATTCGCTTGACGCTGCTG,10.1
6,CCGATTAACATCAGGCGGTAAGGTGATGTTAATCGGGTCTTGATTCGCTTGACGCTGCTG,0.427
7,CCGATTAACATCAAAATTTTCCTTGATGTTAATCGGGTCTTGATTCGCTTGACGCTGCTG,0.0111
8,CCGATTAACATCAGGAAAGTCCATGATGTTAATCGGGTCTTGATTCGCTTGACGCTGCTG,-0.292
9,CCGATTAACATCAAAAAACCGTTTGATGTTAATCGGGTCTTGATTCGCTTGACGCTGCTG,-0.264
10,CCGATTAACATCAAAATTCCAGGTGATGTTAATCGGGTCTTGATTCGCTTGACGCTGCTG,0.452
11,CCGATTAACATCAGCGGAATTCCTGATGTTAATCGGGTCTTGATTCGCTTGACGCTGCTG,1.33
12,CCGATTAACATCAGTGGTACTTGTGATGTTAATCGGGTCTTGATTCGCTTGACGCTGCTG,0.591

# Target: T2, GST-Nv-NF-kB (Cys allele) (UniProt E5G601)
# T2 sequence: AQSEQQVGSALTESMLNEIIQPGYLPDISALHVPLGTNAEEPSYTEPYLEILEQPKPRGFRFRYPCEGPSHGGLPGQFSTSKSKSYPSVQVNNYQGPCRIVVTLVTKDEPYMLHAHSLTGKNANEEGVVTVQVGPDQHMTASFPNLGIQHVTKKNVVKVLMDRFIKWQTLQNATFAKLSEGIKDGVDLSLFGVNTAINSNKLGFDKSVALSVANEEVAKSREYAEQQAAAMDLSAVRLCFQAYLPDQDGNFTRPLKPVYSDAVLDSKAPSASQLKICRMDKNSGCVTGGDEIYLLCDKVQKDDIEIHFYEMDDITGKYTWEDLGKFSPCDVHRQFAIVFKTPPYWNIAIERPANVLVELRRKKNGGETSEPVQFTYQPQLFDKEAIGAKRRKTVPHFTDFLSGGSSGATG
# Test: protein-binding microarray (PBM)
# Conditions: PBM: ~300 nM protein, 6 mM HEPES pH 7.8, 80 mM KCl, 0.5 mM EDTA, 0.5 mM EGTA, 6% glycerol, 35 ng/ul poly-dIdC, 1% milk, 1 h, room temperature; Ap Aiptasia and Nv Nematostella (sea anemones) / Co Capsaspora / Aq Amphimedon (sponge) / Dm Drosophila / Hu human; RHD is the Rel homology domain; high values mean tight binding; most listed sequences are background and not binding sites; double strand, one strand shown
row,Sequence,binding signal [z-score]
1,CCGATTAACATCAGAAAATTTCCTGATGTTAATCGGGTCTTGATTCGCTTGACGCTGCTG,0.949
2,CCGATTAACATCACAAATTTTCCTGATGTTAATCGGGTCTTGATTCGCTTGACGCTGCTG,0.174
3,CCGATTAACATCAAGGCAATTCCTGATGTTAATCGGGTCTTGATTCGCTTGACGCTGCTG,-0.0443
4,CCGATTAACATCAGGAAACTACATGATGTTAATCGGGTCTTGATTCGCTTGACGCTGCTG,-0.844
5,CCGATTAACATCAGAAATTCCCCTGATGTTAATCGGGTCTTGATTCGCTTGACGCTGCTG,12.3
6,CCGATTAACATCAAAGGATTTCCTGATGTTAATCGGGTCTTGATTCGCTTGACGCTGCTG,0.115
7,CCGATTAACATCACCGCAGCATGTGATGTTAATCGGGTCTTGATTCGCTTGACGCTGCTG,0.311
8,CCGATTAACATCAGAAAATTACATGATGTTAATCGGGTCTTGATTCGCTTGACGCTGCTG,-0.155
9,CCGATTAACATCAGGAATTGCCATGATGTTAATCGGGTCTTGATTCGCTTGACGCTGCTG,-0.0328
10,CCGATTAACATCAAGTAATTTTCTGATGTTAATCGGGTCTTGATTCGCTTGACGCTGCTG,0.124
11,CCGATTAACATCATGGTACTTGTTGATGTTAATCGGGTCTTGATTCGCTTGACGCTGCTG,0.141
12,CCGATTAACATCAGTAGTTTCCATGATGTTAATCGGGTCTTGATTCGCTTGACGCTGCTG,0.0875
13,CCGATTAACATCACGTTATTTCCTGATGTTAATCGGGTCTTGATTCGCTTGACGCTGCTG,0.431
14,CCGATTAACATCAAGTTTTTTCCTGATGTTAATCGGGTCTTGATTCGCTTGACGCTGCTG,0.696
15,CCGATTAACATCAAAAAATTTCCTGATGTTAATCGGGTCTTGATTCGCTTGACGCTGCTG,0.847
16,CCGATTAACATCACAGAATTTCCTGATGTTAATCGGGTCTTGATTCGCTTGACGCTGCTG,-0.0448
17,CCGATTAACATCAGCATCCACGGTGATGTTAATCGGGTCTTGATTCGCTTGACGCTGCTG,0.041
18,CCGATTAACATCAGGAATATACATGATGTTAATCGGGTCTTGATTCGCTTGACGCTGCTG,-0.17
19,CCGATTAACATCAGGAAATAACATGATGTTAATCGGGTCTTGATTCGCTTGACGCTGCTG,-0.237
20,CCGATTAACATCAGGAATTTCTATGATGTTAATCGGGTCTTGATTCGCTTGACGCTGCTG,0.179

row,Sequence,binding signal [z-score]
1,CCGATTAACATCAATAAATGTACTGATGTTAATCGGGTCTTGATTCGCTTGACGCTGCTG,-0.0808
2,CCGATTAACATCAGGAAATTCACTGATGTTAATCGGGTCTTGATTCGCTTGACGCTGCTG,0.109
3,CCGATTAACATCAGGGAGATACCTGATGTTAATCGGGTCTTGATTCGCTTGACGCTGCTG,4.81
4,CCGATTAACATCAGGGGGGTAACTGATGTTAATCGGGTCTTGATTCGCTTGACGCTGCTG,4.16
5,CCGATTAACATCAAAAACTACCCTGATGTTAATCGGGTCTTGATTCGCTTGACGCTGCTG,3.21
6,CCGATTAACATCAAGTATTTTCCTGATGTTAATCGGGTCTTGATTCGCTTGACGCTGCTG,0.183
7,CCGATTAACATCAGAAAGTTTCCTGATGTTAATCGGGTCTTGATTCGCTTGACGCTGCTG,0.528
8,CCGATTAACATCAAAAATTCCATTGATGTTAATCGGGTCTTGATTCGCTTGACGCTGCTG,0.429
9,CCGATTAACATCAGGAAAAACACTGATGTTAATCGGGTCTTGATTCGCTTGACGCTGCTG,0.431
10,CCGATTAACATCAAGTACATTCCTGATGTTAATCGGGTCTTGATTCGCTTGACGCTGCTG,-0.968
11,CCGATTAACATCAAGAAATCCCCTGATGTTAATCGGGTCTTGATTCGCTTGACGCTGCTG,11.5
12,CCGATTAACATCAGGAAAATACATGATGTTAATCGGGTCTTGATTCGCTTGACGCTGCTG,-0.246
13,CCGATTAACATCAAAATTCCCCCTGATGTTAATCGGGTCTTGATTCGCTTGACGCTGCTG,11.6
14,CCGATTAACATCAGGCGGTAAGGTGATGTTAATCGGGTCTTGATTCGCTTGACGCTGCTG,0.0229
15,CCGATTAACATCAAAATTTTCCTTGATGTTAATCGGGTCTTGATTCGCTTGACGCTGCTG,0.199
16,CCGATTAACATCAGGAAAGTCCATGATGTTAATCGGGTCTTGATTCGCTTGACGCTGCTG,0.596
17,CCGATTAACATCAAAAAACCGTTTGATGTTAATCGGGTCTTGATTCGCTTGACGCTGCTG,0.233
18,CCGATTAACATCAAAATTCCAGGTGATGTTAATCGGGTCTTGATTCGCTTGACGCTGCTG,-0.572
19,CCGATTAACATCAGCGGAATTCCTGATGTTAATCGGGTCTTGATTCGCTTGACGCTGCTG,0.934
20,CCGATTAACATCAGTGGTACTTGTGATGTTAATCGGGTCTTGATTCGCTTGACGCTGCTG,0.241
